# Variants at the floor of the assay are shown more often than the library holds them.
# B1: TPR 5TU (parent)
# chain: GGAUCUUCUCGAUCUAACAAAAAAGACAAAUCUGCCACAAAGCUUGAGAGCAUCUUCGGAUGCAGAGGCGGCAGCCUUCGGUGGCGCGAUAGCGCCAACGUUCUCAACUAUGACACGCAAAACGCGUGCUCCGUUGAAUGGAGUUUAUCAUG
# Variants of: B1
# Experiment: polymerase ribozyme fitness, log enrichment relative to wild type (log ratio); higher = more active; in vitro selection for triplet polymerase activity
# Summary of the method: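 Genotype fitness is the logarithm of its enrichment divided by wild-type enrichment, using inverse-variance-weighted averages of replicates. That logarithm is base 2. Enrichment was measured by Illumina sequencing of input and output libraries from one triplicate in vitro selection round, with frozen incubation at −7 °C, on PCR-built, transcribed mutant libraries of each subunit of a heterodimeric triplet polymerase ribozyme, retaining genotypes with ≥10 input reads and ≥1 read per output.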
row,Variant,polymerase ribozyme fitness (log ratio)
1,U13G C76A,-2.11
2,U13C G50U G86C A89U C96A C116A,≤ -4.2
3,C14A U55A C75U A120U,-2.39
4,C14A A26U A60U C75G A122U A138C,≤ -4.2
5,C14A A52G U53A U56A G70U C75U C96U C132G U135G,≤ -4.2
6,U13G G83C U145C,-3.39
7,C14A A16U A19G G25C U53A C54U U56A G65U A106G C116U G143C,≤ -4.2
8,U13G C43G G59A,≤ -4.2
9,C14A C116G,-0.826
10,C14A A24G C57G C76U G92U A137G G143U U146A,≤ -4.2
11,U13A C76U C105G C114U,≤ -4.2
12,C14A A37G C93U,-4.13
13,U13G A21U C96U G133C A147C,-4.05
14,U13G A40U C96G A121G,-2.57
15,U13G G83C C99G C118G C123U A137G,≤ -4.2
16,C14A A17G U31A G59A C75G C95U U101G A113U A121U,≤ -4.2
17,U13C G48C A60C U61A C75A G92U C108A C114U,≤ -4.2
18,U13C U56G A115G,-2.32
19,C14A A41U A49C,≤ -4.2
20,U13G C38A C93G C116G A122G,≤ -4.2
21,U13A G58U A64U C93A C105U A142G,≤ -4.2

row,Variant,polymerase ribozyme fitness (log ratio)
1,C14A A22G A29G U44G G62A C85G A89U,≤ -4.2
2,U13A U44G C85A A142G,≤ -4.2
3,U13G A24U C57U G59A U134G,≤ -4.2
4,U13G C69A,≤ -4.2
5,C14A C35U U61A A64G C69G G86A C99G,≤ -4.2
6,U13G A24U A37G U134C,-4.14
7,C14A A19G A26U C79A G83U A119C,≤ -4.2
8,C14A U44A G81A C85A U102G,≤ -4.2
9,U13C U61C C85U A89C U144A,≤ -4.2
10,U13G A26G U31G C51G G88C,≤ -4.2
11,U13G A17U A21G A22G G50C G59A G70C C72U C125G,≤ -4.2
12,U13A U15C C87A,≤ -4.2
13,U13C U148C,-2.48
14,U13C A26U U56A G58C C63A G74U G88C A97U,≤ -4.2
15,U13G A37G G117A G140C U146G,≤ -4.2
16,U13C A30U C36G C51U U55A C87A G126U,≤ -4.2
17,C14A G59A G74A G80C G100A A110U,≤ -4.2
18,U13A G50C A52U U53A U55A A60G G70A U111G C125A A142C,≤ -4.2
19,C14A G80C G86U C118U,≤ -4.2
20,C14A C38U C69G C85A A113G,≤ -4.2
21,C14A A37C C87U C103G U109G C129A A137U,≤ -4.2

row,Variant,polymerase ribozyme fitness (log ratio)
1,C14A A20U C85A U109G,≤ -4.2
2,U13G G68A C96U U101G C131U,≤ -4.2
3,U13G C27G A40C A89U C95A A121U,≤ -4.2
4,U13G C75G,≤ -4.2
5,C14A C38A G68U C87U A91C C132U A142C U144C A147G,≤ -4.2
6,C14A U55G G74A C85U A107U C116G A121U U135A,≤ -4.2
7,U13G U15G C36G U44A A73U A97G A115U U148G,≤ -4.2
8,C14A U55G G83A G100U G126C U146G C149G,≤ -4.2
9,C14A G48A A91U G100A U101C U134A,≤ -4.2
10,C14A G62U G94A,-2.9
11,C14A C32U C108G A120U U139G,≤ -4.2
12,U13G G34A U44A C57G C93U,≤ -4.2
13,U13G A22G U77A C95U A115G C129U,≤ -4.2
14,U13C U31A C54U C57U C87U C93A C99A U111G,≤ -4.2
15,C14A A29U U44A U53G G70U G84U C96G U148A,≤ -4.2
16,U13C A21C,0.934
17,U13G G59A C85U A110U,≤ -4.2
18,U13C A30G A73C G84U A89U,≤ -4.2
19,C14A G65A U102G G117A A120U,≤ -4.2
20,U13G A21U A22C U82G G92U A98C C116U,-1.59
21,U13G A49C,≤ -4.2

row,Variant,polymerase ribozyme fitness (log ratio)
1,U13C A49C C93A,≤ -4.2
2,U13G C51U G86A C103G,≤ -4.2
3,C14A A16U A19U A52G G68A C85G U151G,≤ -4.2
4,C14A G84A,-1.24
5,C14A C18U A22U A26U U82C C95U U145G U148C C149U,≤ -4.2
6,U13A A40G G68A,≤ -4.2
7,C14A U31A A73G C96U A142C,≤ -4.2
8,U13C A19U G25A U45G C57A U82G C93A C95A U145C,≤ -4.2
9,C14A A23G A26U C43U C54U C57A C96G G143A,≤ -4.2
10,C14A U82A G92A,≤ -4.2
11,U13A A39U U45A G59C C72U G94C U101A A142C,≤ -4.2
12,U13A C35U G42A C69G C93G,≤ -4.2
13,C14A A73G C96U A138U G141A,≤ -4.2
14,U13G C14U A52U U56A G92U,≤ -4.2
15,U13C A22U C76G,≤ -4.2
16,U13G A30C C85U C95U U102A C132A U146A,≤ -4.2
17,U13A G58C C87G,≤ -4.2
18,U13G A16C G50A C85A C103G U151G,≤ -4.2
19,U13C A30C G70A C79A C95U C96A C118A G126U,≤ -4.2
20,C14A A19C G58U A89U,-2.28
21,U13G C76U C85G C125U U139G,≤ -4.2
